# In the supplement of paper PMC11876631:
# ± gives the standard deviation of the averaged measurements. Laboratory Escherichia coli strains with one amino-acid change in an essential protein, pooled on minimal glucose agar with carbenicillin or gentamicin at twice the control MIC (plus kanamycin and chloramphenicol for the plasmids), 48 h. Fold change of barcode share against drug-free plates; higher = less susceptible. Active = above 20 in both replicates (the paper's putatively resistant). '<' = one read or none on drug, '>' = one read or none on a drug-free plate. Shares are relative, so most strains fall below 1 when a few take over. Listed are strains with at least 15 reads on both drug-free plates, and hits; most hits rest on fewer reference reads. Replicate rank correlation about 0.5. Edits are read from barcodes.
# B1: metL V126A (protein)
# chain: MSVIAQAGAKGRQLHKFGGSSLADVKCYLRVAGIMAEYSQPDDMMVVSAAGSTTNQLINWLKLSQTDRLSAHQVQQTLRRYQCDLISGLLPAEEADSLISAFVSDLERLAALLDSGINDAVYAEVAGHGEVWSARLMSAVLNQQGLPAAWLDAREFLRAERAAQPQVDEGLSYPLLQQLLVQHPGKRLVVTGFISRNNAGETVLLGRNGSDYSATQIGALAGVSRVTIWSDVAGVYSADPRKVKDACLLPLLRLDEASELARLAAPVLHARTLQPVSGSEIDLQLRCSYTPDQGSTRIERVLASGTGARIVTSHDDVCLIEFQVPASQDFKLAHKEIDQILKRAQVRPLAVGVHNDRQLLQFCYTSEVADSALKILDEAGLPGELRLRQGLALVAMVGAGVTRNPLHCHRFWQQLKGQPVEFTWQSDDGISLVAVLRTGPTESLIQGLHQSVFRAEKRIGLVLFGKGNIGSRWLELFAREQSTLSARTGFEFVLAGVVDSRRSLLSYDGLDASRALAFFNDEAVEQDEESLFLWMRAHPYDDLVVLDVTASQQLADQYLDFASHGFHVISANKLAGASDSNKYRQIHDAFEKTGRHWLYNATVGAGLPINHTVRDLIDSGDTILSISGIFSGTLSWLFLQFDGSVPFTELVDQAWQQGLTEPDPRDDLSGKDVMRKLVILAREAGYNIEPDQVRVESLVPAHCEGGSIDHFFENGDELNEQMVQRLEAAREMGLVLRYVARFDANGKARVGVEAVREDHPLASLLPCDNVFAIESRWYRDNPLVIRGPGAGRDVTAGAIQSDINRLAQLL
# B2: metL V126D (protein)
# chain: MSVIAQAGAKGRQLHKFGGSSLADVKCYLRVAGIMAEYSQPDDMMVVSAAGSTTNQLINWLKLSQTDRLSAHQVQQTLRRYQCDLISGLLPAEEADSLISAFVSDLERLAALLDSGINDAVYAEVDGHGEVWSARLMSAVLNQQGLPAAWLDAREFLRAERAAQPQVDEGLSYPLLQQLLVQHPGKRLVVTGFISRNNAGETVLLGRNGSDYSATQIGALAGVSRVTIWSDVAGVYSADPRKVKDACLLPLLRLDEASELARLAAPVLHARTLQPVSGSEIDLQLRCSYTPDQGSTRIERVLASGTGARIVTSHDDVCLIEFQVPASQDFKLAHKEIDQILKRAQVRPLAVGVHNDRQLLQFCYTSEVADSALKILDEAGLPGELRLRQGLALVAMVGAGVTRNPLHCHRFWQQLKGQPVEFTWQSDDGISLVAVLRTGPTESLIQGLHQSVFRAEKRIGLVLFGKGNIGSRWLELFAREQSTLSARTGFEFVLAGVVDSRRSLLSYDGLDASRALAFFNDEAVEQDEESLFLWMRAHPYDDLVVLDVTASQQLADQYLDFASHGFHVISANKLAGASDSNKYRQIHDAFEKTGRHWLYNATVGAGLPINHTVRDLIDSGDTILSISGIFSGTLSWLFLQFDGSVPFTELVDQAWQQGLTEPDPRDDLSGKDVMRKLVILAREAGYNIEPDQVRVESLVPAHCEGGSIDHFFENGDELNEQMVQRLEAAREMGLVLRYVARFDANGKARVGVEAVREDHPLASLLPCDNVFAIESRWYRDNPLVIRGPGAGRDVTAGAIQSDINRLAQLL
# B3: metL V126Q (protein)
# chain: MSVIAQAGAKGRQLHKFGGSSLADVKCYLRVAGIMAEYSQPDDMMVVSAAGSTTNQLINWLKLSQTDRLSAHQVQQTLRRYQCDLISGLLPAEEADSLISAFVSDLERLAALLDSGINDAVYAEVQGHGEVWSARLMSAVLNQQGLPAAWLDAREFLRAERAAQPQVDEGLSYPLLQQLLVQHPGKRLVVTGFISRNNAGETVLLGRNGSDYSATQIGALAGVSRVTIWSDVAGVYSADPRKVKDACLLPLLRLDEASELARLAAPVLHARTLQPVSGSEIDLQLRCSYTPDQGSTRIERVLASGTGARIVTSHDDVCLIEFQVPASQDFKLAHKEIDQILKRAQVRPLAVGVHNDRQLLQFCYTSEVADSALKILDEAGLPGELRLRQGLALVAMVGAGVTRNPLHCHRFWQQLKGQPVEFTWQSDDGISLVAVLRTGPTESLIQGLHQSVFRAEKRIGLVLFGKGNIGSRWLELFAREQSTLSARTGFEFVLAGVVDSRRSLLSYDGLDASRALAFFNDEAVEQDEESLFLWMRAHPYDDLVVLDVTASQQLADQYLDFASHGFHVISANKLAGASDSNKYRQIHDAFEKTGRHWLYNATVGAGLPINHTVRDLIDSGDTILSISGIFSGTLSWLFLQFDGSVPFTELVDQAWQQGLTEPDPRDDLSGKDVMRKLVILAREAGYNIEPDQVRVESLVPAHCEGGSIDHFFENGDELNEQMVQRLEAAREMGLVLRYVARFDANGKARVGVEAVREDHPLASLLPCDNVFAIESRWYRDNPLVIRGPGAGRDVTAGAIQSDINRLAQLL
# B4: metL V126W (protein)
# chain: MSVIAQAGAKGRQLHKFGGSSLADVKCYLRVAGIMAEYSQPDDMMVVSAAGSTTNQLINWLKLSQTDRLSAHQVQQTLRRYQCDLISGLLPAEEADSLISAFVSDLERLAALLDSGINDAVYAEVWGHGEVWSARLMSAVLNQQGLPAAWLDAREFLRAERAAQPQVDEGLSYPLLQQLLVQHPGKRLVVTGFISRNNAGETVLLGRNGSDYSATQIGALAGVSRVTIWSDVAGVYSADPRKVKDACLLPLLRLDEASELARLAAPVLHARTLQPVSGSEIDLQLRCSYTPDQGSTRIERVLASGTGARIVTSHDDVCLIEFQVPASQDFKLAHKEIDQILKRAQVRPLAVGVHNDRQLLQFCYTSEVADSALKILDEAGLPGELRLRQGLALVAMVGAGVTRNPLHCHRFWQQLKGQPVEFTWQSDDGISLVAVLRTGPTESLIQGLHQSVFRAEKRIGLVLFGKGNIGSRWLELFAREQSTLSARTGFEFVLAGVVDSRRSLLSYDGLDASRALAFFNDEAVEQDEESLFLWMRAHPYDDLVVLDVTASQQLADQYLDFASHGFHVISANKLAGASDSNKYRQIHDAFEKTGRHWLYNATVGAGLPINHTVRDLIDSGDTILSISGIFSGTLSWLFLQFDGSVPFTELVDQAWQQGLTEPDPRDDLSGKDVMRKLVILAREAGYNIEPDQVRVESLVPAHCEGGSIDHFFENGDELNEQMVQRLEAAREMGLVLRYVARFDANGKARVGVEAVREDHPLASLLPCDNVFAIESRWYRDNPLVIRGPGAGRDVTAGAIQSDINRLAQLL
# B5: metL V126P (protein)
# chain: MSVIAQAGAKGRQLHKFGGSSLADVKCYLRVAGIMAEYSQPDDMMVVSAAGSTTNQLINWLKLSQTDRLSAHQVQQTLRRYQCDLISGLLPAEEADSLISAFVSDLERLAALLDSGINDAVYAEVPGHGEVWSARLMSAVLNQQGLPAAWLDAREFLRAERAAQPQVDEGLSYPLLQQLLVQHPGKRLVVTGFISRNNAGETVLLGRNGSDYSATQIGALAGVSRVTIWSDVAGVYSADPRKVKDACLLPLLRLDEASELARLAAPVLHARTLQPVSGSEIDLQLRCSYTPDQGSTRIERVLASGTGARIVTSHDDVCLIEFQVPASQDFKLAHKEIDQILKRAQVRPLAVGVHNDRQLLQFCYTSEVADSALKILDEAGLPGELRLRQGLALVAMVGAGVTRNPLHCHRFWQQLKGQPVEFTWQSDDGISLVAVLRTGPTESLIQGLHQSVFRAEKRIGLVLFGKGNIGSRWLELFAREQSTLSARTGFEFVLAGVVDSRRSLLSYDGLDASRALAFFNDEAVEQDEESLFLWMRAHPYDDLVVLDVTASQQLADQYLDFASHGFHVISANKLAGASDSNKYRQIHDAFEKTGRHWLYNATVGAGLPINHTVRDLIDSGDTILSISGIFSGTLSWLFLQFDGSVPFTELVDQAWQQGLTEPDPRDDLSGKDVMRKLVILAREAGYNIEPDQVRVESLVPAHCEGGSIDHFFENGDELNEQMVQRLEAAREMGLVLRYVARFDANGKARVGVEAVREDHPLASLLPCDNVFAIESRWYRDNPLVIRGPGAGRDVTAGAIQSDINRLAQLL
# B6: metK V330P (protein)
# chain: MAKHLFTSESVSEGHPDKIADQISDAVLDAILEQDPKARVACETYVKTGMVLVGGEITTSAWVDIEEITRNTVREIGYVHSDMGFDANSCAVLSAIGKQSPDINQGVDRADPLEQGAGDQGLMFGYATNETDVLMPAPITYAHRLVQRQAEVRKNGTLPWLRPDAKSQVTFQYDDGKIVGIDAVVLSTQHSEEIDQKSLQEAVMEEIIKPILPAEWLTSATKFFINPTGRFVIGGPMGDCGLTGRKIIVDTYGGMARHGGGAFSGKDPSKVDRSAAYAARYVAKNIVAAGLADRCEIQVSYAIGVAEPTSIMVETFGTEKVPSEQLTLLPREFFDLRPYGLIQMLDLLHPIYKETAAYGHFGREHFPWEKTDKAQLLRDAAGLK
# B7: metK L186A (protein)
# chain: MAKHLFTSESVSEGHPDKIADQISDAVLDAILEQDPKARVACETYVKTGMVLVGGEITTSAWVDIEEITRNTVREIGYVHSDMGFDANSCAVLSAIGKQSPDINQGVDRADPLEQGAGDQGLMFGYATNETDVLMPAPITYAHRLVQRQAEVRKNGTLPWLRPDAKSQVTFQYDDGKIVGIDAVVASTQHSEEIDQKSLQEAVMEEIIKPILPAEWLTSATKFFINPTGRFVIGGPMGDCGLTGRKIIVDTYGGMARHGGGAFSGKDPSKVDRSAAYAARYVAKNIVAAGLADRCEIQVSYAIGVAEPTSIMVETFGTEKVPSEQLTLLVREFFDLRPYGLIQMLDLLHPIYKETAAYGHFGREHFPWEKTDKAQLLRDAAGLK
# B8: metK L186Q (protein)
# chain: MAKHLFTSESVSEGHPDKIADQISDAVLDAILEQDPKARVACETYVKTGMVLVGGEITTSAWVDIEEITRNTVREIGYVHSDMGFDANSCAVLSAIGKQSPDINQGVDRADPLEQGAGDQGLMFGYATNETDVLMPAPITYAHRLVQRQAEVRKNGTLPWLRPDAKSQVTFQYDDGKIVGIDAVVQSTQHSEEIDQKSLQEAVMEEIIKPILPAEWLTSATKFFINPTGRFVIGGPMGDCGLTGRKIIVDTYGGMARHGGGAFSGKDPSKVDRSAAYAARYVAKNIVAAGLADRCEIQVSYAIGVAEPTSIMVETFGTEKVPSEQLTLLVREFFDLRPYGLIQMLDLLHPIYKETAAYGHFGREHFPWEKTDKAQLLRDAAGLK
# Biological target: Escherichia coli (laboratory strain)
# Experiment: barcode share on antibiotic plates over drug-free plates; higher = less susceptible
# Procedure: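 A pool of E. coli strains, each edited to carry one amino-acid change in an essential protein, was grown for 48 h on minimal glucose agar with or without antibiotic; strain barcodes were sequenced; mean of two replicates.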
# [1] = antibiotic: carbenicillin, 2× MIC (3.1 µg/mL)
# [2] = antibiotic: gentamicin, 2× MIC (MIC 0.45 µg/mL)
Protein,fold change of barcode share [1],fold change of barcode share [2]
B1,0.184 ± 0.016,0.0101 ± 0.0077
B2,0.438 ± 0.17,< 0.00333
B3,0.14 ± 0.0041,< 0.00464
B4,0.489 ± 0.23,< 0.00584
B5,0.294 ± 0.073,0.0069 ± 0.0049
B6,0.219 ± 0.09,
B7,0.319 ± 0.016,< 0.00462
B8,0.816 ± 0.14,0.00516 ± 0.0035
